# Results from PubChem BioAssay (Tox21).
# Values joined by “and” are separate entries in the source; they are usually repeats but may differ in a detail not shown here. Equal entries are not always repeated. The shares of active, inactive and inconclusive entries below differ from those in the screen. Potencies beside an inconclusive call are fits to weak or partial responses and may not hold up. Some structures have more than one record in an assay (separate samples or runs), and their calls can disagree. Active and inactive are the calls of the source. Unless noted, calls follow the shape of the dose curve; as a rule, active = well fitted curve in the direction sought with a large enough effect in the repeat runs; inconclusive = weak or mixed curves; inactive = no such curve, though single readings can be large; an effect the other way counts as inactive or inconclusive.
# Key:
# [1] = target: Estrogen receptor beta (Homo sapiens) (UniProt Q92731); experiment: qHTS assay to identify small molecule agonists of the estrogen receptor beta (ER-beta) signaling pathway (AID 1259377; active = well fitted activation curve with a large enough effect in the signal ratio in the repeat runs, not every such curve was filed as active; inconclusive = weak or mixed curves, or effect the other way; the % refers to the signal ratio); conditions: ER-beta-UAS-bla HEK293T, beta-lactamase FRET ratio, 16 h; activation: at 92.4 µM (top of the series) unless noted
# Sequence of UniProt Q92731 (Q92731 whole entry, looked up): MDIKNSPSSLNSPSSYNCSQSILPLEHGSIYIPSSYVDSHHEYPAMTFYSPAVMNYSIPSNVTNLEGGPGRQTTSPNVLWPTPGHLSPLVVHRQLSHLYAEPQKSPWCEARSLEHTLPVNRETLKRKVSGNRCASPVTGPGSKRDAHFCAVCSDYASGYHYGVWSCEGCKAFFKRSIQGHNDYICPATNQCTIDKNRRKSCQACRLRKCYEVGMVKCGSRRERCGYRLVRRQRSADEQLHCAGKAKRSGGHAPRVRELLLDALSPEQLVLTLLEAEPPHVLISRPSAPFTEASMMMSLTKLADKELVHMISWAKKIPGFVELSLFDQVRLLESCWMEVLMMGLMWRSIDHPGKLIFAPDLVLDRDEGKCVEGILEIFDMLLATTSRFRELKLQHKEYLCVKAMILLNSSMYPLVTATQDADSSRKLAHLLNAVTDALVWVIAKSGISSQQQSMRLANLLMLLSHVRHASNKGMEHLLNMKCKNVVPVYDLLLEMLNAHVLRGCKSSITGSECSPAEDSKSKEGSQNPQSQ
# How it was run: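 qHTS in ER-beta-UAS-bla HEK293T cells: 6 hr settling, then 16 hr compound at 37C, then LiveBLAzer substrate 2 h at RT before fluorescence reading.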
# [2] = target: Estrogen receptor beta (Homo sapiens) (UniProt Q92731); experiment: qHTS assay to identify small molecule antagonists of the estrogen receptor beta (ER-beta) signaling pathway (AID 1259378; active = well fitted inhibition curve with a large enough effect in the signal ratio in the repeat runs, not every such curve was filed as active; inconclusive = weak or mixed curves, or effect the other way; inactive = no such curve, though single readings can be large or run the other way; the % refers to the signal ratio); conditions: ER-beta-UAS-bla HEK293T, beta-lactamase FRET ratio, 16 h
# How it was run: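 ER-beta-UAS-bla HEK293T (GripTite) cells in 2% charcoal-stripped FBS medium were preincubated 6 hr at 37C, dosed with compound, then stimulated with 1 nM E2 (final) for 16 hr; beta-lactamase reporter read by B/G FRET fluorescence after 2 hr substrate loading.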
# [3] = qHTS assay to identify small molecule agonists of the estrogen receptor beta (ER-beta) signaling pathway - cell viability counter screen (AID 1259380); conditions: ER-beta-bla HEK293T viability, CellTiter-Glo luminescence, 16 h; series mostly up to 92.4 µM; also: nearly all actives have a fitted effect of over 30% in size
# How it was run: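 In this qHTS counter screen, HEK293T cells carrying an ER-beta/UAS beta-lactamase reporter, grown in 2% charcoal-stripped FBS, received compound for 16 hr; ATP-based CellTiter-Glo luminescence was then read after 30 min at room temperature.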
# [4] = qHTS assay to identify small molecule antagonists of the estrogen receptor beta (ER-beta) signaling pathway - cell viability counter screen (AID 1259382); conditions: ER-beta-UAS-bla HEK293T viability, CellTiter-Glo luminescence, 16 h; series mostly up to 92.4 µM; also: nearly all actives have a fitted effect of over 55% in size
# How it was run: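 HEK293T ER-beta-UAS-bla, 2% charcoal-stripped FBS; compounds + 1nM E2 16 hr 37C; CellTiter-Glo luminescence, 30 min RT.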
# [5] = qHTS assay to identify small molecule agonists of the androgen receptor (AR) signaling pathway in the presence of an antagonist - cell viability counter screen (AID 1259379); conditions: MDA-kb2 viability, CellTiter-Fluor, 16 h; series mostly up to 92.4 µM; also: nearly all actives have a fitted effect of over 25% in size
# How it was run: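 Counter screen for cell viability run in parallel with the AR agonist-mode luciferase assay. MDA-kb2 cells were co-treated with nilutamide (3.0uM final) and compounds, then incubated 16 hr at 37C, and CellTiter-Fluor fluorescence was measured.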
# [6] = target: Estrogen receptor (Homo sapiens) (UniProt P03372); experiment: qHTS assay to identify small molecule agonists of the estrogen receptor alpha (ER-alpha) signaling pathway in the presence of an antagonist (AID 1259383; calls by dose curve; also: nearly all actives have a fitted effect of over 15% in size; as to activation: top concentration of the series differs between compounds); conditions: VM7Luc4E2 cells, ERE-luciferase, +ICI-182,780, 22 h; series mostly up to 42.5 µM
# Sequence of UniProt P03372 (P03372 whole entry, looked up): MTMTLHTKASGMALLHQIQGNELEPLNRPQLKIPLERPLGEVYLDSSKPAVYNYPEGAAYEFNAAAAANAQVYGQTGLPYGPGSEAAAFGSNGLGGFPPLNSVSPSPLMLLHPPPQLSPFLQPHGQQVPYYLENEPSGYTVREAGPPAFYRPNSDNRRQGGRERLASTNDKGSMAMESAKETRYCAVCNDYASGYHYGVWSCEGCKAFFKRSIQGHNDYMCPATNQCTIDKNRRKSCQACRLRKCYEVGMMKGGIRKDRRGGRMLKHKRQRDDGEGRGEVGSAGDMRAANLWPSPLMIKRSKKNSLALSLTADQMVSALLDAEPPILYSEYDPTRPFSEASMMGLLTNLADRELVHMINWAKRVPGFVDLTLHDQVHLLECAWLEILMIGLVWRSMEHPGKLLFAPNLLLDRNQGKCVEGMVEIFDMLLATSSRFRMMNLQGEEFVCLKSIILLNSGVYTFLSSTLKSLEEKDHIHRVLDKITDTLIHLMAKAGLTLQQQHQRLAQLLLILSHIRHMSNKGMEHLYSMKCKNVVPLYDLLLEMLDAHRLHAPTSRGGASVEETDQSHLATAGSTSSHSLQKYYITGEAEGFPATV
# How it was run: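 ER-alpha agonism measured under antagonist challenge: 10.0nM ICI-182,780 (final) plus compound, 15 concentrations, 22hr, VM7Luc4E2 ERE-luciferase cells. Read by luminescence.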
# [7] = activity, negative = inhibition: at 92.4 µM (top of the series) unless noted
# % is scaled to controls: 0 for no effect and ±100 for the full control effect; potency is read from the fitted curve at half-maximal effect; tags tell the direction and shape of the fitted curve or compound fluorescence and quenching.
structure (smiles),measurement,setting,value
O=C(O)c1ccc(Cl)c(Cl)c1,Potency,[1],inactive
same,Potency,[2]; [7],inactive
same,Potency,[3],inactive
C[C@H]1[C@H](NC(=O)/C(=N/OC(C)(C)C(=O)O)c2csc(N)n2)C(=O)N1S(=O)(=O)O (stereo in doubt),Potency,[1],inactive
same,Potency,[2]; [7],inactive
Cc1ccc2c(c1)C(=O)c1ccccc1C2=O,Potency,[1],"inconclusive: 48.4 µM [fluorescent, partial curve]"
same,Potency,[3],"inconclusive: 6.83 µM [cytotoxic, single point]"
CC(C)c1ccc2ncccc2c1,Potency,[1],inactive
CCCCOCCOCCO,activation,[1],inconclusive: 6.01%
Brc1c2ccccc2c(Br)c2ccccc12,Potency,[1],"inconclusive: 1.75 µM [activator, partial curve]"
O=c1[nH]cnc2c1ncn2[C@@H]1O[C@H](CO)[C@@H](O)[C@H]1O,Potency,[1],inactive
same,Potency,[3],inactive
CC(C)CCCC(C)CCO (stereo not given),Potency,[1],"inconclusive: 54.5 µM [activator, partial curve, poor fit]"
CCCCCCCOC(=O)CCC,activation,[1],inconclusive: 12.8%
CO[C@@H]1COCC[C@@H]1N[C@@H]1CC[C@@](C(=O)N2CCc3ncc(C(F)(F)F)cc3C2)(C(C)C)C1,Potency,[1],inactive
same,"activity, negative = inhibition",[2]; [7],inconclusive: -1.2%
same,Potency,[4],inactive
O=C1CC2(CCCC2)CC(=O)N1,Potency,[1],inactive
same,Potency,[2]; [7],inactive
CC(C)Nc1ccccc1,Potency,[1],inactive
same,Potency,[2]; [7],inactive
same,Potency,[3],inactive
Cc1c(Cl)cccc1Nc1ccccc1C(=O)O,Potency,[1],"inconclusive: 9.44 µM [fluorescent, partial curve]"
same,Potency,[2]; [7],"inconclusive: 4.73 µM [fluorescent, partial curve]"
c1c[nH]cn1,Potency,[2]; [7],inactive
CC(C)CC(C)(C)C,Potency,[1],"inconclusive: 56.5 µM [rising, partial curve]"
same,Potency,[2]; [7],"inconclusive: 63.4 µM [rising, partial curve]"
same,Potency,[3],active: 35.7 µM
same,Potency,[4],active: 31.8 µM
CN1CCOCC1,activation,[1],inconclusive: 9.84%
same,Potency,[2]; [7],inactive
same,Potency,[3],"inconclusive: 77 µM [rising, partial curve, poor fit]"
O=Cc1c2ccccc2c(Cl)c2ccccc12,activation,[1],inconclusive: 2.94% [at 42.5 µM]
same,Potency,[5],"inconclusive: 6.69 µM [cytotoxic, full curve]"
CN(C)c1ccncc1,Potency,[1],inactive
CCN1CCc2nc(N)oc2CC1,Potency,[2]; [7],inactive
Cc1cccc2c1cc1ccc3cccc4ccc2c1c34,Potency,[1],"inconclusive: 62.6 µM [fluorescent, partial curve]"
same,Potency,[2]; [7],"inconclusive: 70.2 µM [fluorescent, partial curve]"
same,Potency,[5],"inconclusive: 9.92 µM [rising, full curve]"
O=C(OCC(COC(=O)c1ccccc1)(COC(=O)c1ccccc1)COC(=O)c1ccccc1)c1ccccc1,Potency,[2]; [7],"inconclusive: 68.5 µM [cytotoxic, single point]"
O=C(O)C(c1ccc(Cl)cc1)c1ccc(Cl)cc1,Potency,[1],inactive
same,Potency,[2]; [7],inactive
same,Potency,[3],active: 61.1 µM
same,Potency,[4],"inconclusive: 48.6 µM [cytotoxic, partial curve]"
C[C@H](CCC(=O)O)[C@H]1CC[C@H]2[C@@H]3C(=O)C[C@@H]4CC(=O)CC[C@]4(C)[C@H]3CC(=O)[C@]12C,Potency,[1],inactive
c1cc2ccc3ccc4ccc5cccc6c(c1)c2c3c4c56,activation,[1],inconclusive: 5.38% [at 3.32 µM]
same,"activity, negative = inhibition",[2]; [7],inactive: 4.07% [at 3.27 µM]
CCCCC(CC)COC(C)=O (stereo not given),Potency,[1],"inconclusive: 27 µM [activator, partial curve]"
same,Potency,[5],inactive
OCCN(CCO)c1ccccc1,activation,[1],inconclusive: 11.8%
same,Potency,[2]; [7],inactive
same,Potency,[4],inactive
CCn1nc(C)c2c1C(=O)NCC(c1ccc(O)cc1)=N2,activation,[1],inconclusive: 4.64%
same,Potency,[2]; [7],inactive
same,Potency,[6],"inconclusive: 0.0386 µM [activator, full curve, poor fit]"
COc1ccccc1Oc1c(NS(=O)(=O)c2ccc(C(C)(C)C)cc2)nc(-c2ncccn2)nc1OCCO,Potency,[1],"inconclusive: 42.2 µM [rising, partial curve, poor fit]"
same,Potency,[2]; [7],"inconclusive: 26.6 µM [rising, partial curve]"
same,Potency,[3],"inconclusive: 15 µM [cytotoxic, partial curve]"
c1ccc2c(c1)c1cccc3ccc4cccc2c4c31,Potency,[1],active: 60.7 µM
same,Potency,[3],"inconclusive: 8.57 µM [cytotoxic, partial curve]"
C[C@@H]1CC[C@H]2C(C)(C)[C@H]3C[C@@]12CC[C@@]3(C)O,Potency,[2]; [7],inactive
CC1(C)[C@H](C(=O)O)N2C(=O)C[C@H]2S1(=O)=O,activation,[1],inconclusive: -8.96% [at 42.5 µM]
same,Potency,[2]; [7],active: 11.9 µM
CCCCCCCC/C=C\CCCCCCCC(=O)N(C)CC(=O)O,Potency,[1],inconclusive: 68.6 µM [cytotoxic]
same,Potency,[2]; [7],"inconclusive: 77 µM [cytotoxic, single point]"
same,Potency,[5],"inconclusive: 48.6 µM [cytotoxic, partial curve]"
C/C=C/C(=O)O,Potency,[1],inactive
C[C@]12C[C@H](O)[C@H]3[C@@H](CCC4=CC(=O)CC[C@@]43C)[C@@H]1CC[C@@H]2C(=O)CO,"activity, negative = inhibition",[2]; at 42.5 µM (top of the series),inactive: 5.69%
same,"activity, negative = inhibition",[2]; at 92.4 µM (top of the series),inactive: -1.79%
same,Potency,[6],"inconclusive: 77.1 µM [activator, single point]"
NC(=O)N1c2ccccc2C=Cc2ccccc21,"activity, negative = inhibition",[2]; at 92.4 µM (top of the series),inactive: -1.9% and inactive: 6.11%
CN[C@@H]1[C@@H](O)[C@@H](O[C@@H]2[C@H](O)[C@H](O[C@H]3OC(CN)=CC[C@H]3N)[C@@H](N)C[C@H]2N)OCC1(C)O (stereo not given in full),Potency,[5],inactive
O=CCCCC=O,Potency,[5],"inconclusive: 66.2 µM [cytotoxic, partial curve, poor fit]"
c1ccc2c(c1)ccc1cc3c(ccc4ccccc43)cc12,Potency,[6],"inconclusive: 4.28 µM [activator, partial curve]"
Cc1cc(C(C)(C)C)c(O)c(C)c1CC1=NCCN1,Potency,[6],inactive
